According to the supplement of paper PMC11417369:
The other results are listed elsewhere or left out.

What follows are sequences tested on PfAP2-HC AP2 domain (GST-tagged) (assay: gcPBM binding intensity (ln(normalized median fluorescence intensity)); higher = stronger DNA binding).
In short: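 In this array assay, P. falciparum DNA-binding domains with a GST tag, expressed in E. coli, were applied for 1 h to primer-extended double-stranded 36-bp intergenic genomic probes and negative controls on an Agilent 4 × 180k array. Bound protein was visualised with Alexa488 anti-GST antibody at 488 nm. Binding intensity is the highest Masliner-normalised natural-log median intensity across replicate spots of either probe orientation.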

| Sequence | gcPBM binding intensity (ln) |
| --- | --- |
| GAATATAAACCTATTACACACATCTATATGTACATT [CACACA_site1914] | 10.1 |
| TTTTTTATGCTAACTTCTTTTTCCTTATAAAATTGG [TGCATGCA_negctrl_site598] | 9.46 |
| ATTTTTTTTATTATTACACACATATAACAAAAAAAT [CACACA_site6934] | 9.63 |
| TTTTTATATTTCAACATATCACAATTTTATATATCT [CACACA_negctrl_site178] | 9.7 |
| ATATATATATTATATGCACACTTATATTTCATTAGA [CACACA_site5439] | 9.65 |
| TATTTATAAATGAACACACACGCAATTTGAATCGAA [CACACA_site3371] | 10.3 |
| AACACATACAGATATGCACACATTTTATTCCATTAT [CACACA_site5565] | 9.97 |
| TAAATATTAACAATCGCACACATATTATTTTTCCAA [CACACA_site1626] | 9.79 |
| AAGGTAAACAGACACACACACATACAAAAAAAAAAA [CACACA_site3768] | 10.8 |
| GAATATATATTCATATGTACACAATTTATGTATTAT [XGTACX_site4719] | 9.78 |
| AAAAAGAAAAAATATATTCGTCTATTATAAACAATA [CACACA_negctrl_site648] | 9.34 |
| ATAATTCTTTTACTGTGTACATATTATCACTTATTT [XGTACX_site2456] | 9.94 |
| CATTATGTTGTAAATACACACATACAGATACATACA [CACACA_site4565] | 9.94 |
| TAAAGGCAAACAAACACACACACATAAATACAGATA [CACACA_site5204] | 10.7 |
| ATATGCGTTTGCAAATGTACATATTATTTATATATA [XGTACX_site7128] | 9.61 |
| TTTTTTGGTTTTCATGCACACAATTTATAAATCTAT [CACACA_site3106] | 9.96 |
| TTTTGTTTTTGTAGAGTGCATAAAGAAGATATGTAT | 9.39 |
| TGGAAACAATGACACACACACAAAAAAAAAAAAAAA [CACACA_site7494] | 10.3 |
| ATAATAATATTTCTATGTACTTATTTTATGTATTAG [XGTACX_site1747] | 9.69 |
| TATAAATACTTAGAAACACACAAAAATATTTTATAA [CACACA_site7259] | 9.71 |
| AAAAATTAAAATATAACTAATTAATTTGTATTCATT [CACACA_negctrl_site1633] | 9.48 |
| GTAGGGGAAAAAAAAACACACAAAAAACAACAGATC [CACACA_site1187] | 10.2 |
| TTATCTCTACAAAGTGCACACACGTAAAAACATATA [CACACA_site3957] | 9.83 |

| Sequence | gcPBM binding intensity (ln) |
| --- | --- |
| TGTAATTGTTTAAAGGGTACATATATCAGATGTCTT [XGTACX_site5877] | 9.44 |
| TTAGTAAATACATTTGCACACATTATTTTTTAACAT [CACACA_site5448] | 9.91 |
| ATTTATTTATTTATATGTACTTAAATGAAAGGAATA [XGTACX_site6024] | 9.35 |
| TTTCAAAATTTTTATTTTAAATAAACATTTATAAAA [CACACA_negctrl_site1588] | 9.33 |
| ACATACATTTTTAAATGTACATATATATATATATAT [XGTACX_site6751] | 9.99 |
| CCGATATAATGGAAAACACACAAAAGATATATATAT [CACACA_site2683] | 10.1 |
| ATATGGCACATATGTACACACGTATAGATAATATTA [CACACA_site5162] | 9.91 |
| AATATTATATGGACGTGTCCACATAAACCTATATAT [XGTACX_site2053] | 9.64 |
| GGAAATATAAAATCATGTACATATGTATATATAATT [XGTACX_site5491] | 9.93 |
| TATATATTTTTTTCATGTACTTATTATATATATATA [XGTACX_site5321] | 9.78 |
| ATGAATATATATATTTGTACATATGTATATATATAT [XGTACX_site7527] | 9.66 |
| AGTATAGATGTATACACACACCAAACGTTAAAAAAA [CACACA_site7443] | 10.2 |
| AAATACAAAATTGTTACACACATATTAATTATGACA [CACACA_site476] | 9.75 |
| TATCATCATGTATGTACACACATACAGATATTATGT [CACACA_site4888] | 10.2 |
| TATATTTTAAAATTATGTACATATATAGATAAATGT [XGTACX_site1349] | 9.56 |
| ATATAAATATAGTGTGCACACACATAATATATATAT [CACACA_site8713] | 10.4 |
| ATATATATATATAATACACACATCATAAAATATGTA [CACACA_site2518] | 9.79 |
| AAAATAAATTGTGAAGGTACACAAATTATTATGTGG [XGTACX_site4196] | 9.7 |
| TCGATATATAGACACACACACTTTTAATAATTAAAT [CACACA_site7726] | 10.4 |
| TACAAACAGACATATACACACAAAAAAAAAATAAAA [CACACA_site2562] | 9.89 |
| TTATGCAGATAAAAGAGTACATATTCGTTACATACA [XGTACX_site2849] | 9.6 |
| AATCATATTTAGATTACACACAGTTTAAATATTTTA [CACACA_site1263] | 9.66 |
